# Assay results as given in the supplement of paper PMC3334620.
# In all, about 33,000 sequences were measured (“E-score (-0.5 to 0.5)”: median about -0.016, highest 2% from about 0.32 on). This is one part of the list.
# Target: T1, Stp1 (UniProt B3LFK1)
# T1 sequence: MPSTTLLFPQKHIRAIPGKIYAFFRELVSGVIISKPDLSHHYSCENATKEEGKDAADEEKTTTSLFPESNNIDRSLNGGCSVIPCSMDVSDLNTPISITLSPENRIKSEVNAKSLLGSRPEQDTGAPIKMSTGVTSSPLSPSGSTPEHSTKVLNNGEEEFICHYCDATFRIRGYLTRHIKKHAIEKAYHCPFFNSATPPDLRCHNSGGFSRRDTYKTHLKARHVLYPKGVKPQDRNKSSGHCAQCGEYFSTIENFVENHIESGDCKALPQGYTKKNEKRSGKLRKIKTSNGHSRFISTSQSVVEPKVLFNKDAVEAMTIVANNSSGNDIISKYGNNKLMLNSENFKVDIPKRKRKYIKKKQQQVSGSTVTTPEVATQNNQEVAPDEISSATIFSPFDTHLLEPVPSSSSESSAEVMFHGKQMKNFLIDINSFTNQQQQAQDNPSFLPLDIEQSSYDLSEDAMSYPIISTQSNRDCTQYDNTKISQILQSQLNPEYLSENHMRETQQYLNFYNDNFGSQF
# Assay: PBM E-score (8-mer binding enrichment) (E-score (-0.5 to 0.5)); higher = stronger / more preferred TF binding; most listed sequences are background and not binding sites
# Settings: protein concentration: 200 nM; construct: GST-full length
# How it was run: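 Using PURExpress in vitro transcription/translation, GST-tagged yeast transcription factors were made in full-length or DNA-binding-domain form. These were applied at about 100-200 nM to double-stranded universal all-10-mer Agilent arrays, and bound protein was detected with fluorescent anti-GST. Scans were normalised with masliner before the Universal PBM Analysis Suite assigned E-scores to ungapped eight-base words pooled with their reverse complements.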
row,Sequence,PBM E-score
1,CAGAGTCC,-0.0446
2,TGCATGCA,0.134
3,AGCTCGTA,-0.0375
4,ATCGTCTC,-0.0455
5,ACTACTAC,0.0938
6,ATTCAATG,0.192
7,AAATGGCT,0.144
8,AAGGTTAC,-0.0639
9,CTTGTACC,-0.0231
10,GCTTTCCC,-0.0471
11,CGGGTGTA,-0.08
12,TACAGCGA,-0.156
13,CGTGTCAC,0.231
14,GACGACGC,-0.00573
15,ATCGGCCA,-0.0532
16,ACCAGCCA,-0.159
17,CACGTACC,-0.0492
18,AAAGGTGT,-0.18
19,CAGGACTC,-0.213
20,AATTGACT,0.0682
21,CCCCAGAG,-0.358
22,ACCCACTC,-0.126
23,AAGGCATT,0.322
24,CCTTATTA,0.0711
25,AAACTTGC,0.116

row,Sequence,PBM E-score
1,ATGTTCTA,-0.0361
2,ACCTCCCA,-0.193
3,AGCGGTCG,-0.232
4,ATACGTCA,0.02
5,TCCATTCA,0.00937
6,CAACTCGG,-0.139
7,AGAGCAGC,-0.0622
8,GACTGACC,-0.312
9,ACCCACAA,0.176
10,CTAGCTGC,-0.167
11,ACCATGCT,-0.0869
12,CAAGTTTC,0.127
13,CCGTCGGA,-0.123
14,GCACTAGC,-0.0111
15,CCGCCCTC,0.00395
16,GACCAATA,0.0246
17,AGTGCCAT,0.18
18,GGCTGCTA,0.0399
19,ACCGGGAC,-0.142
20,GTGACGAA,0.0563
21,CCCAAGGG,-0.295
22,AATAAGAG,0.164
23,ATAGTTGG,0.0208
24,AGTCCGAA,0.0608
25,AATTTTAT,0.203

row,Sequence,PBM E-score
1,CACCATTC,0.0105
2,ACCAATGA,-0.178
3,AGGAGTAC,-0.122
4,AGTAGTCG,-0.0173
5,ATTCAAAC,0.11
6,ACGGGAGA,-0.0974
7,ACAGGTTA,-0.21
8,CCCAACCA,-0.0358
9,CCTTGCAA,0.126
10,GCTGTGAA,-0.0891
11,TATGCTCA,-0.0187
12,ATGTCCAA,0.0605
13,TGCGTAAA,0.115
14,GCGAAGAC,-0.013
15,CGTTCTTC,0.156
16,GAAAACCC,-0.036
17,AATGAGCA,-0.158
18,AGCCCCAG,-0.0897
19,AATTCATC,-0.135
20,GTTCACCA,-0.0849
21,CCGTAGAG,0.0533
22,ATGCCCAG,-0.0625
23,CGCTAAAC,0.132
24,CAGTAAGC,0.0252
25,AGGTGCCG,0.385

row,Sequence,PBM E-score
1,GCCGAAGC,0.0659
2,CCCCACCG,-0.241
3,GATATTGC,-0.0426
4,CGGGCATC,-0.152
5,CGGAAGTA,0.101
6,GATAATAA,0.00829
7,CCGACCAC,-0.107
8,AACCAGAA,0.0351
9,GAAAGTGA,-0.272
10,ACTAGGAC,-0.296
11,AACTCTGA,0.144
12,AGATCTTG,-0.102
13,AGCGCAAT,-0.0898
14,CTGCTAGC,-0.247
15,CTGAATTA,0.139
16,AAATTACT,0.191
17,CAATATAG,0.104
18,AGGCATAA,0.178
19,CTGCACTA,0.159
20,ATTGTCTG,-0.0201
21,ATGGTCGG,-0.0924
22,AGTACCGC,0.113
23,GTGCACAA,-0.119
24,AAGTCCGT,-0.0471
25,ACGTCGAA,-0.0911

row,Sequence,PBM E-score
1,GGTTTAAA,0.099
2,CAGAAAGC,-0.0444
3,CAATTCCA,-0.0728
4,CCCGATAG,-0.195
5,ATCTACAC,0.0776
6,CGGCCTAC,0.0473
7,ACTTTGTA,-0.00379
8,CGTTATGC,0.0838
9,CTTACTGA,-0.0425
10,CGATGCTC,-0.236
11,TCACTGCA,0.131
12,TAAACGGA,0.216
13,AGCCACAG,-0.187
14,GAAGTAGA,-0.0869
15,ACAAGCAT,0.0735
16,ATGCTGAC,-0.0531
17,ACAAAAAG,0.0515
18,CCCCTACC,-0.212
19,AATAAGAT,0.0522
20,TGGGTACA,-0.0522
21,TAGCGTGA,-0.0517
22,GGGTAATA,-0.0259
23,ATCATTTG,-0.137
24,ACTTTTAT,0.0423
25,CGATACGA,-0.183

row,Sequence,PBM E-score
1,CCCTACTA,-0.0442
2,GATATGTA,0.122
3,CAGCAAAC,-0.0549
4,TTAGCGAA,0.0705
5,CATTGAAG,-0.103
6,CGGCTCGC,0.281
7,CCGACGAC,-0.17
8,AATATAAT,0.0522
9,CCTTAGAC,-0.0879
10,ACCACAAA,0.15
11,AGGCAGCA,0.0881
12,CGTGCCAG,0.172
13,AAGGTGAT,-0.0969
14,CTCCATTA,-0.101
15,AGCCTACT,-0.181
16,CGTCTTCC,-0.0987
17,GCCATCAA,-0.068
18,TAACTTGA,-0.0515
19,CCTACGCA,0.0834
20,AACCTCGC,-0.162
21,CCCTCCAG,-0.207
22,GACCGAGA,-0.0588
23,AAGCGTCG,-0.146
24,GTTGCCGA,0.159
25,ATCGTCCC,-0.232

row,Sequence,PBM E-score
1,CCAACATA,0.228
2,CAAGTCTG,-0.33
3,CGTGCGCA,0.0559
4,CAGGGTGA,-0.313
5,CCCTAAGC,-0.189
6,CGATGCTA,-0.00577
7,CATGACAC,0.16
8,CAGCATTC,-0.0991
9,ATCTGAAC,-0.00491
10,ACTTCTGG,-0.103
11,AGTCGCTC,-0.272
12,CGCCACGA,0.00358
13,ACCAAATA,0.183
14,ACGCGGGA,0.0444
15,GCCTGCAC,-0.097
16,GTTACATA,0.101
17,ACTTTGTG,0.0858
18,GTTCGGTA,0.0739
19,TGGCCGAA,-0.103
20,CTCTCATA,0.0216
21,CGTCTACA,-0.184
22,AACGGATG,0.15
